Test results from patent US20160287540A1, “Increasing Cancer Patient Survival Time by Administration of Dithio-Containing Compounds” (BioNumerik Pharmaceuticals, Inc., priority 2015, published 2016).

Tested on: thioredoxin/thioredoxin reductase

Compound: O=S(=O)([O-])CCSSCCS(=O)(=O)[O-].[Na+].[Na+] [BNP7787, disodium 2,2′-dithio-bis-ethane sulfonate]
- effect on TX/TXR catalyzed reduction of the insulin A-B chain disulfide bond (in words): inhibits
